Hit rate of the full screen: of about 230,000 compounds, about 3,600 (1.6%) were called active. The shares of active, inactive and inconclusive entries below differ from those in the screen. The call rests on the fitted dose curve; in most records, active means well fitted inhibition curve with a large enough effect (not every such curve was filed as active); inconclusive means small, poorly fitted or top-dose-only effect, or another doubt; inactive means no such curve, though single readings can be large or run the other way. Where the call is inconclusive, the potency comes from a doubtful curve fit.
Each compound was assayed against Lysine-specific demethylase 4E (Homo sapiens) (UniProt B2RXH2) (assay: qHTS Assay for Inhibitors of Human Jumonji Domain Containing 2E (JMJD2E)). Settings: JMJD2E catalytic domain, FDH-coupled NADH fluorescence (FDH is formaldehyde dehydrogenase); series mostly up to 57.1 µM.
Chain of UniProt B2RXH2 (B2RXH2 whole entry, looked up, the tested form may be a part): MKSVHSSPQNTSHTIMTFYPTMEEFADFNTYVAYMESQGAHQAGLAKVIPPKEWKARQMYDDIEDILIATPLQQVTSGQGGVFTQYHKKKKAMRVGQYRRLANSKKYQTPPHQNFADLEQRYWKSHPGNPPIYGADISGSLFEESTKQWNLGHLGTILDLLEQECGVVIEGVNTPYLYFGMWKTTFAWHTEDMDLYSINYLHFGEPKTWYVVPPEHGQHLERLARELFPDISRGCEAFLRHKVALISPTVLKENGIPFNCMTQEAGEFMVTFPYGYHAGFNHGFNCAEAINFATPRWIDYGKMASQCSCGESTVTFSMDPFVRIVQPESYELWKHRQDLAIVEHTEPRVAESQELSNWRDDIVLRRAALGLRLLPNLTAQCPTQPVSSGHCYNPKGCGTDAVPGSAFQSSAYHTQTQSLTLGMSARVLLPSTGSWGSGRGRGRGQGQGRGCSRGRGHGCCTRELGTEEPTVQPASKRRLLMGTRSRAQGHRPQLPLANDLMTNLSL
With `Cc1ccc2nc3sc(C(=O)Nc4ccc(N5CCOCC5)cc4)c(N)c3cc2c1` the Potency was “inactive”.
For `O=C(NCc1ccccc1)NC(O)C(Cl)(Cl)Cl` (stereo not given), the Potency was “inactive”.
`COc1cc(/C=C\c2ccc(OC)cc2OC)cc(OC)c1` was tested, and the Potency was inconclusive: 31.6 µM [inhibitor, partial curve].
`CC1=NN(c2ccccc2)C(=O)C1/C=C1\NC(=S)NC1=O` (stereo not given) was tested, and the Potency was inconclusive: 31.6 µM [inhibitor, single point].
With `O=C(c1ccco1)N1CCN(C(=O)c2ccccc2Oc2ccccc2)CC1` the Potency was “inactive”.
`O=C(CSc1cccc2cccnc12)OCC(=O)c1ccccc1` was tested, and the Potency was inconclusive: 35.5 µM [inhibitor, single point].
With `CCNC(=O)N1c2ccc(OC)cc2C(C)=CC1(C)C` the Potency was inconclusive: 31.6 µM [inhibitor, partial curve].
For `Cc1ccc(C)n1-c1nccc(-c2ccco2)n1`, the Potency was inconclusive: 28.2 µM [inhibitor, partial curve].
`O=C(Nc1nc2ccccc2s1)c1ccc(OCC2CCCO2)cc1` (stereo not given) was tested, and the Potency was inconclusive: 31.6 µM [inhibitor, partial curve].
In the case of `CS(=O)(=O)c1ccc2nc(NC(=O)c3cc4ccccc4o3)sc2c1`, the Potency was inconclusive: 35.5 µM [inhibitor, single point].
`CC(C)(C)c1ccc(OCC(=O)N(c2ccccn2)C2CCCCC2)cc1` was tested, and the Potency was “inactive”.
With `CCN(CC)c1ccc(NC(=O)c2cc(OC)cc(OC)c2)c(C)c1` the Potency was “inactive”.
In the case of `O=C(NCCc1ccccc1)c1noc2c1CCc1ccccc1-2`, the Potency was “inactive”.
For `Cc1ccc(C)c2[nH]c(=O)c(CN(CCCN(C)C)C(=O)NCc3ccccc3)cc12`, the Potency was inconclusive: 28.2 µM [inhibitor, single point].
In the case of `COc1ccc(CNCCC(c2ccccc2)C2CCOC(C)(C)C2)cc1` (stereo not given), the Potency was “inactive”.
`Nc1c(C(=O)NCc2ccco2)c2nc3ccccc3nc2n1CCc1ccccc1F` was tested, and the Potency was inconclusive: 31.6 µM [inhibitor, partial curve].
For `COc1ccc(-n2ccnc2CN2CCCC(CO)(Cc3cccc(OC)c3)C2)cc1` (stereo not given), the Potency was “inactive”.
In the case of `COCCNC(=O)c1cc2c(=O)n3cccc(C)c3nc2n(Cc2ccncc2)c1=N`, the Potency was inconclusive: 31.6 µM [inhibitor, partial curve].
`CCOC(=O)C1CCCN(C(=O)CCNS(=O)(=O)c2ccc3c(c2)CCC(=O)N3)C1` (stereo not given) was tested, and the Potency was inconclusive: 35.5 µM [inhibitor, single point].
`N#Cc1cccnc1N1CCN(C(=O)c2ccco2)CC1` was tested, and the Potency was inconclusive: 25.1 µM [inhibitor, partial curve].
With `CSc1ncc(Cl)c(C(=O)C(C#N)c2nc3c(C)cc(C)cc3c(=O)[nH]2)n1` (stereo not given) the Potency was inconclusive: 39.8 µM [inhibitor, single point].
In the case of `CCOC(=O)c1cc(-c2ccccc2)sc1NC(=O)CN1C(=O)NC(CC)(c2ccc(F)cc2)C1=O` (stereo not given), the Potency was inconclusive: 35.5 µM [inhibitor, single point].
With `CN(C)c1cc(-c2ccc(Cl)c(Cl)c2)oc(=O)c1Cl` the Potency was “inactive”.
`COCCCN1C(=O)C(=O)/C(=C(/O)c2ccc3c(c2)OCCO3)C1c1ccc(C(=O)OC)cc1` (stereo not given) was tested, and the Potency was “inactive”.
With `COc1cccc(-n2c(CN3CCN(c4ccccc4)CC3)nc3ccc([N+](=O)[O-])cc3c2=O)c1` the Potency was “inactive”.
In the case of `N#C/C(=N\Nc1cc(Cl)cc(Cl)c1)c1nnc2n1CCCCC2`, the Potency was “inactive”.
For `CN(C(=O)c1ccncc1)c1nnc(-c2ccccn2)s1`, the Potency was inconclusive: 3.55 µM [inhibitor, single point].
For `O=c1[nH]c2ccccc2cc1-c1noc(-c2cccnc2)n1`, the Potency was inconclusive: 8.91 µM [inhibitor, partial curve].
`CCC1CCc2c(sc3ncnc(N4CCOCC4)c23)C1` (stereo not given) was tested, and the Potency was inconclusive: 35.5 µM [inhibitor, single point].
`CCOc1ccc2nc(NCCCNS(=O)(=O)c3ccccc3)c(C#N)cc2c1` was tested, and the Potency was inconclusive: 35.5 µM [inhibitor, partial curve].
In the case of `O=[N+]([O-])c1ccc(CN2C=NS(=O)(=O)c3ccccc32)cc1`, the Potency was inconclusive: 2.24 µM [inhibitor, partial curve].
In the case of `CCCCCNC(=O)C(=O)C1C(=O)Nc2ccccc21` (stereo not given), the Potency was inconclusive: 31.6 µM [inhibitor, single point].
With `Cc1csc(NC(=O)c2cnccn2)n1` the Potency was inconclusive: 39.8 µM [inhibitor, single point].
For `CCOC(=O)C1=C(C)n2c(s/c(=C/c3cccc([N+](=O)[O-])c3)c2=O)=NC1c1ccc(O)c(OC)c1` (stereo not given), the Potency was “inactive”.
In the case of `CC1CCN(C(=O)COC(=O)c2n[nH]c3ccccc23)CC1`, the Potency was inconclusive: 31.6 µM [inhibitor, single point].
With `O=C(O)c1ccc(-c2nc3ccccc3s2)o1` the Potency was inconclusive: 28.2 µM [inhibitor, partial curve].
In the case of `COc1cccc([C@@H]2Oc3ccc(Br)cc3C(=O)[C@H]2OC(=O)NCCc2ccc(OC)c(OC)c2)c1`, the Potency was active: 14.1 µM.
With `COc1ccc(C(=O)CCC(=O)N2CCN(c3ccc(N4CCOCC4)nn3)CC2)cc1` the Potency was inconclusive: 31.6 µM [inhibitor, partial curve].
For `CCOc1ccc(NC(=S)N(Cc2ccc(N(C)C)cc2)Cc2ccco2)cc1`, the Potency was “inactive”.
In the case of `O=C(NCc1ccccc1)c1ccccc1OCC(=O)N1CCCCC1`, the Potency was “inactive”.
For `O=C1C2C(C(=O)N1c1ccccc1)N1CCCN1C2c1ccccc1` (stereo not given), the Potency was “inactive”.
In the case of `Cc1cc2c(cc(C(=O)NCCCN3CCOCC3)n2Cc2ccc(Cl)cc2)o1`, the Potency was inconclusive: 39.8 µM [inhibitor, single point].
In the case of `O=C1C=C(c2cccs2)C[C@H](c2ccccc2)[C@H]1n1nnc([N+](=O)[O-])n1`, the Potency was inconclusive: 39.8 µM [inhibitor, single point].
`O=c1c2ccccc2c(C=Nc2ccc(S(=O)(=O)Nc3ncccn3)cc2)c(O)n1-c1cccc(Cl)c1` was tested, and the Potency was inconclusive: 31.6 µM [inhibitor, partial curve].
`O=C1CC(c2ccccc2)Sc2nc(-c3ccccc3)c(-c3ccccc3)n21` (stereo not given) was tested, and the Potency was inconclusive: 28.2 µM [inhibitor, partial curve].
In the case of `COc1ccc(-c2ccnc3nc(Sc4ncc(C(F)(F)F)cc4Cl)nn23)cc1`, the Potency was inconclusive: 20 µM [inhibitor, partial curve].
For `O=C(CCNC(=O)Cn1ccc2ccccc2c1=O)NCCc1ccc(Cl)cc1`, the Potency was inconclusive: 39.8 µM [inhibitor, single point].
For `CCN1CCC(NC(=O)Nc2ccccc2C(=O)OC)CC1`, the Potency was inconclusive: 39.8 µM [inhibitor, single point].
With `Clc1cccc(COn2c(-c3ccc(Cl)cc3Cl)nc3ncccc32)c1` the Potency was “inactive”.
`Cc1cc(CN2CCN(CCC#N)CC2)c(O)c(C2(C)CCCCC2)c1` was tested, and the Potency was “inactive”.
In the case of `COc1ccccc1-c1nnc(NC(=O)c2ccc(S(=O)(=O)N(C)Cc3ccccc3)cc2)o1`, the Potency was inconclusive: 35.5 µM [inhibitor, single point].
For `CCOc1ccccc1C(=O)N1CCC(n2nnc3cc(C(F)(F)F)ccc32)CC1`, the Potency was “inactive”.
`O=C(NC1CCCCCCC1)c1cc(-c2ccccn2)nc2ccccc12` was tested, and the Potency was inconclusive: 25.1 µM [inhibitor, single point].
In the case of `COc1cccc(-n2nnc3c(=O)n(Cc4ccc(Br)cc4)cnc32)c1`, the Potency was “inactive”.
`CC(=O)Nc1ccc2nc(NC(=O)COc3ccccc3)sc2c1` was tested, and the Potency was inconclusive: 35.5 µM [inhibitor, single point].
With `COc1ccc(C(=O)NNC(=O)C2CCN(S(=O)(=O)c3ccc(C)cc3)CC2)cc1` the Potency was “inactive”.
With `CN(C)c1ccc(/C=N/n2c(-c3cccnc3)n[nH]c2=S)cc1` the Potency was inconclusive: 39.8 µM [inhibitor, single point].
With `Cc1noc(C)c1COC(=O)c1ccccc1NC(=O)Cc1ccccc1` the Potency was inconclusive: 39.8 µM [inhibitor, single point].
For `CCOC(=O)c1ccc(-n2c(O)c(/C=N/NC(=O)C3COc4ccccc4O3)c3ccccc3c2=O)cc1` (stereo not given), the Potency was active: 25.1 µM.
For `Cc1cc(N2CCN(C)CC2)nc2ccc(NC(=S)N3CCN(c4cccc(Cl)c4)CC3)cc12`, the Potency was inconclusive: 31.6 µM [inhibitor, partial curve].
For `Cc1c(Cl)cccc1NC(=S)NCCC(C)C`, the Potency was inconclusive: 39.8 µM [inhibitor, single point].
For `CC1(C)CC(=O)C(/C=N/n2c(C(F)(F)F)nc3ccccc3c2=O)=C(O)C1`, the Potency was inconclusive: 39.8 µM [inhibitor, single point].
With `COc1ccc(-c2nc(N)n(C(=O)c3ccccc3Cl)n2)cc1` the Potency was “inactive”.
With `Cc1cc(N2CCN(C/C=C/c3ccccc3)CC2)n2ncnc2n1` the Potency was “inactive”.
For `Cc1cc(C(=O)N/N=C/c2c[nH]c3ccccc23)cs1`, the Potency was inconclusive: 22.4 µM [inhibitor, single point].
For `COC(=O)CCCC1=CC2=C(c3ccccc3)C(=O)C(C)(OC(=O)C3CCCC3)C(=O)C2=CN1Cc1ccco1` (stereo not given), the Potency was active: 17.8 µM.
In the case of `Cc1cccn2c(=O)c(C=Nc3ccccc3)c(NCCO)nc12`, the Potency was inconclusive: 31.6 µM [inhibitor, partial curve].
In the case of `COC(=O)c1[nH]c2ccc(C)cc2c1NC(=O)Nc1ccc(OC)cc1`, the Potency was inconclusive: 35.5 µM [inhibitor, single point].
With `CCOC(=O)C1=C(O)/C(=C\c2ccc(O)c(OCC)c2)N=C1C` the Potency was inconclusive: 8.91 µM [inhibitor, single point].
For `COc1ccccc1NC(=O)Cn1c(C)cc(=O)c2cccc(OC)c21`, the Potency was inconclusive: 35.5 µM [inhibitor, single point].

— PubChem BioAssay AID2147 (National Center for Advancing Translational Sciences (NCATS), 2009)
Further: nearly all actives have a fitted effect of over 50% in size.
Potency means the concentration at half of the fitted maximal effect; tags describe the fitted curve by direction and shape.
